# Measurements from the supplement of paper PMC8728848.
# The list shows a part of the results.
# B1: Cohesin-hLangerin (Homo sapiens) (protein)
# chain: LDDLDAVRIKVDTVNAKPGDTVRIPVRFSGIPSKGIANCDFVYSYDPNVLEIIEIEPGDIIVDPNPDKSFDTAVYPDRKIIVFLFAEDSGTGAYAITKDGVFATIVAKVKEGAPNGLSVIKFVEVGGFANNDLVEQKTQFFDGGANVGDTTEPATPTTPVTTPTTTDDLDAASYPRFMGTISDVKTNVQLLKGRVDNISTLDSEIKKNSDGMEAAGVQIQMVNESLGYVRSQFLKLKTSVEKANAQIQILTRSWEEVSTLNAQIPELKSDLEKASALNTKIRALQGSLENMSKLLKRQNDILQVVSQGWKYFKGNFYYFSLIPKTWYSAEQFCVSRNSHLTSVTSESEQEFLYKTAGGLIYWIGLTKAGMEGDWSWVDDTPFNKVQSARFWIPGEPNNAGNNEHCGNIKAPSLQAWNDAPCDKTFLFICKRPYVPSEPHHHHHH
# Tests used:
# Assay in all cases: glycan array binding signal (z-score within array); higher = stronger binding
# Details in all cases: glycan notation: IUPAC condensed, linker removed
# [1] = target: Neu5Ac(a2-3)Gal(b1-4)GlcNAc(b1-6)GalNAc
# Summary of the method: (§1)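 Glycan array data came from 3228 arrays in the Consortium for Functional Glycomics database, and only arrays with an available protein sequence were kept. Glycan names were put into IUPAC-condensed notation, and columns mapping to the same glycan were averaged. The binding signal is a within-array Z-score, averaged across arrays of one protein sequence run at different concentrations or buffers and across linkers. A negative Z-score can be read as non-binding.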
# [2] = target: Neu5Ac(a2-3)Gal(b1-4)GlcNAc(b1-6)[Gal(b1-3)]GalNAc
# Summary of the method: as §1
# [3] = target: Neu5Ac(a2-3)Gal(b1-4)GlcNAc(b1-6)[Neu5Ac(a2-3)Gal(b1-3)]GalNAc
# Summary of the method: as §1
# [4] = target: Neu5Ac(a2-3)Gal(b1-4)GlcNAc6S
# Summary of the method: as §1
# [5] = target: Neu5Ac(a2-3)Gal(b1-4)[Fuc(a1-3)]GlcNAc
# Summary of the method: as §1
# [6] = target: Neu5Ac(a2-3)Gal(b1-4)[Fuc(a1-3)]GlcNAc(b1-2)Man
# Summary of the method: as §1
# [7] = target: Neu5Ac(a2-3)Gal(b1-4)[Fuc(a1-3)]GlcNAc(b1-3)Gal
# Summary of the method: as §1
# [8] = target: Neu5Ac(a2-3)Gal(b1-4)[Fuc(a1-3)]GlcNAc(b1-3)Gal(b1-4)GlcNAc
# Summary of the method: as §1
# [9] = target: Neu5Ac(a2-3)Gal(b1-4)[Fuc(a1-3)]GlcNAc(b1-3)Gal(b1-4)[Fuc(a1-3)]GlcNAc(b1-3)Gal(b1-4)[Fuc(a1-3)]GlcNAc
# Summary of the method: as §1
# [10] = target: Neu5Ac(a2-3)Gal(b1-4)[Fuc(a1-3)]GlcNAc(b1-3)GalNAc
# Summary of the method: as §1
# [11] = target: Neu5Ac(a2-3)Gal(b1-4)[Fuc(a1-3)]GlcNAc(b1-6)[Gal(b1-3)]GalNAc
# Summary of the method: as §1
# [12] = target: Neu5Ac(a2-3)Gal(b1-4)[Fuc(a1-3)]GlcNAc(b1-6)[Neu5Ac(a2-3)Gal(b1-3)]GalNAc
# Summary of the method: as §1
# [13] = target: Neu5Ac(a2-3)Gal(b1-4)[Fuc(a1-3)]GlcNAc6S
# Summary of the method: as §1
# [14] = target: Neu5Ac(a2-3)Gal6S(b1-4)GlcNAc
# Summary of the method: as §1
# [15] = target: Neu5Ac(a2-3)Gal6S(b1-4)[Fuc(a1-3)]GlcNAc
# Summary of the method: as §1
# Neu5Ac(a2-3)GalNAc = target: Neu5Ac(a2-3)GalNAc
# Summary of the method: as §1
# [16] = target: Neu5Ac(a2-3)GalNAc(b1-4)GlcNAc
# Summary of the method: as §1
# [17] = target: Neu5Ac(a2-3)[GalNAc(b1-4)]Gal(b1-4)Glc
# Summary of the method: as §1
# [18] = target: Neu5Ac(a2-3)[GalNAc(b1-4)]Gal(b1-4)GlcNAc
# Summary of the method: as §1
# [19] = target: Neu5Ac(a2-3)[GalNAc(b1-4)]Gal(b1-4)GlcNAc(b1-3)GalNAc
# Summary of the method: as §1
# [20] = target: Neu5Ac(a2-3)[Neu5Ac(a2-6)]GalNAc
# Summary of the method: as §1
# Neu5Ac(a2-6)Gal = target: Neu5Ac(a2-6)Gal
# Summary of the method: as §1
# [21] = target: Neu5Ac(a2-6)Gal(b1-3)GlcNAc(b1-3)[Gal(b1-4)GlcNAc(b1-6)]Gal(b1-4)Glc
# Summary of the method: as §1
# Neu5Ac(a2-6)Gal(b1-4)Glc = target: Neu5Ac(a2-6)Gal(b1-4)Glc
# Summary of the method: as §1
# [22] = target: Neu5Ac(a2-6)Gal(b1-4)GlcNAc
# Summary of the method: as §1
# [23] = target: Neu5Ac(a2-6)Gal(b1-4)GlcNAc(b1-2)Man
# Summary of the method: as §1
# [24] = target: Neu5Ac(a2-6)Gal(b1-4)GlcNAc(b1-2)Man(a1-3)Man(b1-4)GlcNAc(b1-4)GlcNAc
# Summary of the method: as §1
# [25] = target: Neu5Ac(a2-6)Gal(b1-4)GlcNAc(b1-2)Man(a1-3)[Gal(b1-4)GlcNAc(b1-2)Man(a1-6)]Man(b1-4)GlcNAc(b1-4)GlcNAc
# Summary of the method: as §1
# [26] = target: Neu5Ac(a2-6)Gal(b1-4)GlcNAc(b1-2)Man(a1-3)[GlcNAc(b1-2)Man(a1-6)]Man(b1-4)GlcNAc(b1-4)GlcNAc
# Summary of the method: as §1
# [27] = target: Neu5Ac(a2-6)Gal(b1-4)GlcNAc(b1-2)Man(a1-3)[GlcNAc(b1-4)][Neu5Ac(a2-6)Gal(b1-4)GlcNAc(b1-2)Man(a1-6)]Man(b1-4)GlcNAc(b1-4)GlcNAc
# Summary of the method: as §1
# [28] = target: Neu5Ac(a2-6)Gal(b1-4)GlcNAc(b1-2)Man(a1-3)[Man(a1-6)]Man(b1-4)GlcNAc(b1-4)GlcNAc
# Summary of the method: as §1
binder,measurement,setting,value
B1,glycan array binding signal (z-score),[1],-0.26
same,glycan array binding signal (z-score),[2],-0.112
same,glycan array binding signal (z-score),[3],-0.435
same,glycan array binding signal (z-score),[4],-0.432
same,glycan array binding signal (z-score),[5],-0.361
same,glycan array binding signal (z-score),[6],-0.412
same,glycan array binding signal (z-score),[7],-0.421
same,glycan array binding signal (z-score),[8],-0.217
same,glycan array binding signal (z-score),[9],-0.186
same,glycan array binding signal (z-score),[10],0.356
same,glycan array binding signal (z-score),[11],-0.444
same,glycan array binding signal (z-score),[12],-0.312
same,glycan array binding signal (z-score),[13],-0.42
same,glycan array binding signal (z-score),[14],2.21
same,glycan array binding signal (z-score),[15],3.69
same,glycan array binding signal (z-score),Neu5Ac(a2-3)GalNAc,-0.414
same,glycan array binding signal (z-score),[16],-0.426
same,glycan array binding signal (z-score),[17],-0.41
same,glycan array binding signal (z-score),[18],-0.366
same,glycan array binding signal (z-score),[19],-0.379
same,glycan array binding signal (z-score),[20],-0.386
same,glycan array binding signal (z-score),Neu5Ac(a2-6)Gal,-0.428
same,glycan array binding signal (z-score),[21],-0.442
same,glycan array binding signal (z-score),Neu5Ac(a2-6)Gal(b1-4)Glc,-0.412
same,glycan array binding signal (z-score),[22],-0.428
same,glycan array binding signal (z-score),[23],-0.273
same,glycan array binding signal (z-score),[24],-0.43
same,glycan array binding signal (z-score),[25],-0.438
same,glycan array binding signal (z-score),[26],-0.441
same,glycan array binding signal (z-score),[27],-0.444
same,glycan array binding signal (z-score),[28],-0.439
